# Measurements from the supplement of paper PMC8728848.
# The other results are listed elsewhere or left out.
# What was measured:
# Test in all cases: glycan array binding signal (z-score within array); higher = stronger binding
# Details in all cases: glycan notation: IUPAC condensed, linker removed
# [1] = target: Gal(b1-4)GlcNAc(b1-2)[Gal(b1-4)GlcNAc(b1-6)]Man(a1-6)[GlcNAc(b1-4)][Gal(b1-4)GlcNAc(b1-2)Man(a1-3)]Man(b1-4)GlcNAc(b1-4)GlcNAc
# Outline: (§1)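 Columns mapping to the same glycan were averaged after glycan names were converted to IUPAC-condensed notation. The data come from 3228 arrays in the Consortium for Functional Glycomics database, limited to those with an available protein sequence. Binding is reported as a within-array Z-score averaged across arrays of one protein sequence and across linkers.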
# [2] = target: Gal(b1-4)GlcNAc(b1-2)[Gal(b1-4)GlcNAc(b1-6)]Man(a1-6)[GlcNAc(b1-4)][Gal(b1-4)GlcNAc(b1-2)[Gal(b1-4)GlcNAc(b1-4)]Man(a1-3)]Man(b1-4)GlcNAc(b1-4)[Fuc(a1-6)]GlcNAc
# Outline: as §1
# [3] = target: Gal(b1-4)GlcNAc(b1-3)Gal(b1-3)GalNAc
# Outline: as §1
# [4] = target: Gal(b1-4)GlcNAc(b1-3)Gal(b1-3)GlcNAc
# Outline: as §1
# [5] = target: Gal(b1-4)GlcNAc(b1-3)Gal(b1-4)Glc
# Outline: as §1
# [6] = target: Gal(b1-4)GlcNAc(b1-3)Gal(b1-4)GlcNAc
# Outline: as §1
# [7] = target: Gal(b1-4)GlcNAc(b1-3)Gal(b1-4)GlcNAc(b1-2)Man(a1-3)[Gal(b1-4)GlcNAc(b1-3)Gal(b1-4)GlcNAc(b1-2)Man(a1-6)]Man(b1-4)GlcNAc(b1-4)GlcNAc
# Outline: as §1
# [8] = target: Gal(b1-4)GlcNAc(b1-3)Gal(b1-4)GlcNAc(b1-2)Man(a1-3)[Gal(b1-4)GlcNAc(b1-3)Gal(b1-4)GlcNAc(b1-2)Man(a1-6)]Man(b1-4)GlcNAc(b1-4)[Fuc(a1-6)]GlcNAc
# Outline: as §1
# [9] = target: Gal(b1-4)GlcNAc(b1-3)Gal(b1-4)GlcNAc(b1-2)[Gal(b1-4)GlcNAc(b1-3)Gal(b1-4)GlcNAc(b1-6)]Man(a1-6)[Gal(b1-4)GlcNAc(b1-3)Gal(b1-4)GlcNAc(b1-2)Man(a1-3)]Man(b1-4)GlcNAc(b1-4)GlcNAc
# Outline: as §1
# [10] = target: Gal(b1-4)GlcNAc(b1-3)Gal(b1-4)GlcNAc(b1-2)[Gal(b1-4)GlcNAc(b1-3)Gal(b1-4)GlcNAc(b1-6)]Man(a1-6)[Gal(b1-4)GlcNAc(b1-3)Gal(b1-4)GlcNAc(b1-2)Man(a1-3)]Man(b1-4)GlcNAc(b1-4)[Fuc(a1-6)]GlcNAc
# Outline: as §1
# [11] = target: Gal(b1-4)GlcNAc(b1-3)Gal(b1-4)GlcNAc(b1-3)Gal(b1-4)GlcNAc
# Outline: as §1
# [12] = target: Gal(b1-4)GlcNAc(b1-3)Gal(b1-4)GlcNAc(b1-3)Gal(b1-4)GlcNAc(b1-2)Man(a1-3)[Gal(b1-4)GlcNAc(b1-3)Gal(b1-4)GlcNAc(b1-3)Gal(b1-4)GlcNAc(b1-2)Man(a1-6)]Man(b1-4)GlcNAc(b1-4)GlcNAc
# Outline: as §1
# [13] = target: Gal(b1-4)GlcNAc(b1-3)Gal(b1-4)GlcNAc(b1-3)Gal(b1-4)GlcNAc(b1-2)Man(a1-3)[Gal(b1-4)GlcNAc(b1-3)Gal(b1-4)GlcNAc(b1-3)Gal(b1-4)GlcNAc(b1-2)Man(a1-6)]Man(b1-4)GlcNAc(b1-4)[Fuc(a1-6)]GlcNAc
# Outline: as §1
# [14] = target: Gal(b1-4)GlcNAc(b1-3)Gal(b1-4)GlcNAc(b1-3)Gal(b1-4)GlcNAc(b1-2)[Gal(b1-4)GlcNAc(b1-3)Gal(b1-4)GlcNAc(b1-3)Gal(b1-4)GlcNAc(b1-6)]Man(a1-6)[Gal(b1-4)GlcNAc(b1-3)Gal(b1-4)GlcNAc(b1-3)Gal(b1-4)GlcNAc(b1-2)Man(a1-3)]Man(b1-4)GlcNAc(b1-4)[Fuc(a1-6)]GlcNAc
# Outline: as §1
# [15] = target: Gal(b1-4)GlcNAc(b1-3)Gal(b1-4)GlcNAc(b1-3)Gal(b1-4)GlcNAc(b1-3)Gal(b1-4)GlcNAc(b1-2)Man(a1-3)[Gal(b1-4)GlcNAc(b1-3)Gal(b1-4)GlcNAc(b1-3)Gal(b1-4)GlcNAc(b1-3)Gal(b1-4)GlcNAc(b1-2)Man(a1-6)]Man(b1-4)GlcNAc(b1-4)GlcNAc
# Outline: as §1
# [16] = target: Gal(b1-4)GlcNAc(b1-3)Gal(b1-4)GlcNAc(b1-3)Gal(b1-4)GlcNAc(b1-3)Gal(b1-4)GlcNAc(b1-2)Man(a1-3)[Gal(b1-4)GlcNAc(b1-3)Gal(b1-4)GlcNAc(b1-3)Gal(b1-4)GlcNAc(b1-3)Gal(b1-4)GlcNAc(b1-2)Man(a1-6)]Man(b1-4)GlcNAc(b1-4)[Fuc(a1-6)]GlcNAc
# Outline: as §1
# [17] = target: Gal(b1-4)GlcNAc(b1-3)Gal(b1-4)GlcNAc(b1-3)Gal(b1-4)GlcNAc(b1-3)Gal(b1-4)GlcNAc(b1-2)[Gal(b1-4)GlcNAc(b1-3)Gal(b1-4)GlcNAc(b1-3)Gal(b1-4)GlcNAc(b1-3)Gal(b1-4)GlcNAc(b1-6)]Man(a1-6)[Gal(b1-4)GlcNAc(b1-3)Gal(b1-4)GlcNAc(b1-3)Gal(b1-4)GlcNAc(b1-3)Gal(b1-4)GlcNAc(b1-2)Man(a1-3)]Man(b1-4)GlcNAc(b1-4)[Fuc(a1-6)]GlcNAc
# Outline: as §1
# [18] = target: Gal(b1-4)GlcNAc(b1-3)Gal(b1-4)GlcNAc(b1-3)Gal(b1-4)GlcNAc(b1-3)Gal(b1-4)GlcNAc(b1-3)Gal(b1-4)GlcNAc(b1-2)Man(a1-3)[Gal(b1-4)GlcNAc(b1-3)Gal(b1-4)GlcNAc(b1-3)Gal(b1-4)GlcNAc(b1-3)Gal(b1-4)GlcNAc(b1-3)Gal(b1-4)GlcNAc(b1-2)Man(a1-6)]Man(b1-4)GlcNAc(b1-4)GlcNAc
# Outline: as §1
# [19] = target: Gal(b1-4)GlcNAc(b1-3)Gal(b1-4)GlcNAc(b1-3)Gal(b1-4)GlcNAc(b1-3)Gal(b1-4)GlcNAc(b1-3)Gal(b1-4)GlcNAc(b1-2)Man(a1-3)[Gal(b1-4)GlcNAc(b1-3)Gal(b1-4)GlcNAc(b1-3)Gal(b1-4)GlcNAc(b1-3)Gal(b1-4)GlcNAc(b1-3)Gal(b1-4)GlcNAc(b1-2)Man(a1-6)]Man(b1-4)GlcNAc(b1-4)[Fuc(a1-6)]GlcNAc
# Outline: as §1
# [20] = target: Gal(b1-4)GlcNAc(b1-3)Gal(b1-4)GlcNAc(b1-3)Gal(b1-4)GlcNAc(b1-3)Gal(b1-4)GlcNAc(b1-3)Gal(b1-4)GlcNAc(b1-2)[Gal(b1-4)GlcNAc(b1-3)Gal(b1-4)GlcNAc(b1-3)Gal(b1-4)GlcNAc(b1-3)Gal(b1-4)GlcNAc(b1-3)Gal(b1-4)GlcNAc(b1-6)]Man(a1-6)[Gal(b1-4)GlcNAc(b1-3)Gal(b1-4)GlcNAc(b1-3)Gal(b1-4)GlcNAc(b1-3)Gal(b1-4)GlcNAc(b1-3)Gal(b1-4)GlcNAc(b1-2)Man(a1-3)]Man(b1-4)GlcNAc(b1-4)[Fuc(a1-6)]GlcNAc
# Outline: as §1
# [21] = target: Gal(b1-4)GlcNAc(b1-3)Gal(b1-4)GlcNAc(b1-3)Gal(b1-4)GlcNAc(b1-3)Gal(b1-4)GlcNAc(b1-3)Gal(b1-4)GlcNAc(b1-3)Gal(b1-4)GlcNAc(b1-2)Man(a1-3)[Gal(b1-4)GlcNAc(b1-3)Gal(b1-4)GlcNAc(b1-3)Gal(b1-4)GlcNAc(b1-3)Gal(b1-4)GlcNAc(b1-3)Gal(b1-4)GlcNAc(b1-3)Gal(b1-4)GlcNAc(b1-2)Man(a1-6)]Man(b1-4)GlcNAc(b1-4)GlcNAc
# Outline: as §1
# [22] = target: Gal(b1-4)GlcNAc(b1-3)Gal(b1-4)GlcNAc(b1-3)GalNAc
# Outline: as §1
# [23] = target: Gal(b1-4)GlcNAc(b1-3)Gal(b1-4)GlcNAc(b1-3)[Gal(b1-4)GlcNAc(b1-3)Gal(b1-4)GlcNAc(b1-6)]GalNAc
# Outline: as §1
# [24] = target: Gal(b1-4)GlcNAc(b1-3)Gal(b1-4)GlcNAc(b1-6)[Gal(b1-3)]GalNAc
# Outline: as §1
# [25] = target: Gal(b1-4)GlcNAc(b1-3)Gal(b1-4)[Fuc(a1-3)]GlcNAc(b1-3)Gal(b1-4)[Fuc(a1-3)]GlcNAc
# Outline: as §1
# [26] = target: Gal(b1-4)GlcNAc(b1-3)GalNAc
# Outline: as §1
# [27] = target: Gal(b1-4)GlcNAc(b1-3)[Fuc(a1-3)GlcNAc(b1-6)]Gal(b1-4)Glc
# Outline: as §1
# [28] = target: Gal(b1-4)GlcNAc(b1-3)[Gal(b1-4)GlcNAc(b1-6)]Gal(b1-4)GlcNAc
# Outline: as §1
# [29] = target: Gal(b1-4)GlcNAc(b1-3)[GlcNAc(b1-6)]Gal(b1-4)GlcNAc
# Outline: as §1
# [30] = target: Gal(b1-4)GlcNAc(b1-6)Gal(b1-4)GlcNAc
# Outline: as §1
# [31] = target: Gal(b1-4)GlcNAc(b1-6)GalNAc
# Outline: as §1
# [32] = target: Gal(b1-4)GlcNAc(b1-6)[Gal(b1-3)]GalNAc
# Outline: as §1
# [33] = target: Gal(b1-4)GlcNAc(b1-6)[Gal(b1-4)GlcNAc(b1-3)]GalNAc
# Outline: as §1
# [34] = target: Gal(b1-4)GlcNAc6P
# Outline: as §1
# [35] = target: Gal(b1-6)Gal
# Outline: as §1
# [36] = target: Gal3S(b1-3)GalNAc
# Outline: as §1
# [37] = target: Gal3S(b1-3)GlcNAc
# Outline: as §1
# [38] = target: Gal3S(b1-3)[Fuc(a1-4)]GlcNAc
# Outline: as §1
binder,measurement,setting,value
Clec18C (Homo sapiens) (protein) MLHPETSPGRGHLLAVLLALLGTAWAEVWPPQLQEQAPMAGALNRKESFLLLSLHNRLRSWVQPPAADMRRLDWSDSLAQLAQARAALCGTPTPSLASGLWRTLQVGWNMQLLPAGLVSFVEVVSLWFAEGQRYSHAAGECARNATCTHYTQLVWATSSQLGCGRHLCSAGQAAIEAFVCAYSPRGNWEVNGKTIVPYKKGAWCSLCTASVSGCFKAWDHAGGLCEVPRNPCRMSCQNHGRLNISTCHCHCPPGYTGRYCQVRCSLQCVHGRLREEECSCVCDIGYGGAQCATKVHFPFHTCDLRIDGDCFMVSSEADTYYRARMKCQRKGGVLAQIKSQKVQDILAFYLGRLETTNEVIDSDFETRNFWIGLTYKTAKDSFRWATGEHQAFTSFAFGQPDNHGFGNCVELQASAAFNWNNQRCKTRNRYICQFAQEHISRWGPGS,glycan array binding signal (z-score),[1],-0.243
same,glycan array binding signal (z-score),[2],-0.339
same,glycan array binding signal (z-score),[3],5.75
same,glycan array binding signal (z-score),[4],-0.045
same,glycan array binding signal (z-score),[5],0.555
same,glycan array binding signal (z-score),[6],0.778
same,glycan array binding signal (z-score),[7],0.543
same,glycan array binding signal (z-score),[8],0.329
same,glycan array binding signal (z-score),[9],1.38
same,glycan array binding signal (z-score),[10],-0.184
same,glycan array binding signal (z-score),[11],0.455
same,glycan array binding signal (z-score),[12],1.85
same,glycan array binding signal (z-score),[13],-0.242
same,glycan array binding signal (z-score),[14],-0.191
same,glycan array binding signal (z-score),[15],1.91
same,glycan array binding signal (z-score),[16],-0.276
same,glycan array binding signal (z-score),[17],2.21
same,glycan array binding signal (z-score),[18],1.84
same,glycan array binding signal (z-score),[19],3.34
same,glycan array binding signal (z-score),[20],0.598
same,glycan array binding signal (z-score),[21],0.31
same,glycan array binding signal (z-score),[22],-0.28
same,glycan array binding signal (z-score),[23],0.156
same,glycan array binding signal (z-score),[24],-0.581
same,glycan array binding signal (z-score),[25],-0.106
same,glycan array binding signal (z-score),[26],0.056
same,glycan array binding signal (z-score),[27],-0.356
same,glycan array binding signal (z-score),[28],7.63
same,glycan array binding signal (z-score),[29],-0.059
same,glycan array binding signal (z-score),[30],-0.493
same,glycan array binding signal (z-score),[31],0.277
same,glycan array binding signal (z-score),[32],0.126
same,glycan array binding signal (z-score),[33],-0.181
same,glycan array binding signal (z-score),[34],5.02
same,glycan array binding signal (z-score),[35],-0.264
same,glycan array binding signal (z-score),[36],-0.042
same,glycan array binding signal (z-score),[37],-0.492
same,glycan array binding signal (z-score),[38],-0.464
